Experimental data from PubChem BioAssay AID1745853 (National Center for Advancing Translational Sciences (NCATS), 2022).
This is one part of the list. These are further read-outs of the screen, such as a control signal, another cell line or another target. No call is given for them. Square brackets hold non-standard residues; d marks the D form. Peptide text beside a SMILES is read from it. ξ: configuration not given here. ξPhe(βξ-Me) = CC(c1ccccc1)C(N)C(=O)O; GABA = NCCCC(=O)O

Columns and labels:
Assay in all cases: Primary Screen for Target Class Profiling of Small Molecule Inhibitors of Methyltransferases
[1] = biological target: Glycine N-methyltransferase (Homo sapiens) (UniProt Q14749); conditions: purified enzyme, MTase-Glo SAH luminescence; measured here: GNMT inhibition; at 40 µM; stronger effect = lower value
Outline: (§1)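 Each enzyme was assayed with SAM and its substrate. SAH formation detected by MTase-Glo luminescence; single-point 40 uM screen[…].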

[2] = biological target: Guanidinoacetate N-methyltransferase (Homo sapiens) (UniProt Q14353); conditions: purified enzyme, MTase-Glo SAH luminescence; measured here: GAMT inhibition; at 40 µM; stronger effect = lower value
Outline: as §1

[3] = biological target: Histamine N-methyltransferase (Homo sapiens) (UniProt P50135); conditions: purified enzyme, MTase-Glo SAH luminescence; measured here: HNMT inhibition; at 40 µM; stronger effect = lower value
Outline: as §1

[4] = biological target: Nicotinamide N-methyltransferase (Homo sapiens) (UniProt P40261); conditions: purified enzyme, MTase-Glo SAH luminescence; measured here: NNMT inhibition; at 40 µM; stronger effect = lower value
Outline: as §1

[5] = biological target: Phenylethanolamine N-methyltransferase (Homo sapiens) (UniProt P11086); conditions: purified enzyme, MTase-Glo SAH luminescence; measured here: PNMT inhibition; at 40 µM; stronger effect = lower value
Outline: as §1
% is set by controls: 0 for no effect and ±100 for the full control effect.

Structure (SMILES) | activity change, negative = inhibition [1] | activity change, negative = inhibition [2] | activity change, negative = inhibition [3] | activity change, negative = inhibition [4] | activity change, negative = inhibition [5]
CCN(CCCNC(=O)CCc1nnc2n(CCC(C)C)c(=O)c3ccccc3n12)c1cccc(C)c1 | -9.62% | 4.02% | -3.02% | -16.5% | -4.04%
CC1NC(=O)CCCNC(=O)C(Cc2c[nH]c3ccccc23)NC(=O)C(C)NC(=O)C(C(C)C)NC(=O)C(C(C)c2ccccc2)NC(=O)C(C(C)C)NC1=O (stereo not drawn) (cyclo([GABA]AV[ξPhe(βξ-Me)]VAW); configuration not given here) | -2.34% | -4.33% | 6.76% | -17.5% | -12.2%
Cc1ccc(Cn2c(=O)c3ccccc3n3c(CCC(=O)N4CCN(c5ccccn5)CC4)nnc23)cc1 | -16.6% | 0% | -3.17% | -5.47% | -3.36%
CC(C)CN(C[C@@H](O)[C@H](Cc1ccccc1)NC(=O)O[C@H]1CO[C@H]2OCC[C@H]21)S(=O)(=O)c1ccc(N)cc1 |  | -3.6% |  | -14.2% | -7.75%
CC1(C(=O)NC2CCCCCCC2)Cn2c(ccc2-c2ccccc2)C(=O)N1CCc1cccs1 (stereo not drawn) | -0.167% | 0% | 6.38% | 1.13% | 4.65%
CCc1cc2c(cc3n2CC(C)(C(=O)NC2CCCCC2)N(C2CCCCCC2)C3=O)s1 (stereo not drawn) | -1.19% | 5.47% | 0.909% | 5.49% | -1.24%
O=C(NCCCN1CCc2ccccc2C1)C1CCCCC(=O)N1Cc1ccccc1 (stereo not drawn) | -6.46% | -1.3% | -6.97% | -0.621% | -9.4%
O=C(CCCc1nnc2n3nc(-c4ccccc4)nc3c3ccccc3n12)N1CC=C(c2ccccc2)CC1 | -13.6% | 2.73% | -7.21% | -5% | -11.8%
Cc1ccc(S(=O)(=O)Nc2ccccc2N2CCCCC2)s1 | 2.11% | -0.787% | 11.5% | -13.6% | -1.89%
CCN1C(=O)c2c(C(=O)NCc3cc(Br)ccc3OC)ncn2CC1(C)C(=O)NC1CCCC1 (stereo not drawn) | -9.37% | 4.63% | 2.71% | 1.44% | -0.608%
O=c1c2ccccc2n2c(SCc3ccccc3)nnc2n1Cc1ccc(F)cc1 | 4.4% | 0% | 5.41% | 1.34% | 2.12%
O=C(c1cc(F)ccc1F)N1CCC(Cc2noc(C3CC3)n2)C1 (stereo not drawn) | -2.15% | -1.4% | 0.116% | -3.17% | -1.62%
CC1=C2CC(O)(C(C)(C)O)C(O[C@@H]3O[C@H](CO)[C@@H](O)[C@H](O)[C@H]3O)CC(C)C2CC1=O (stereo partly drawn) | -0.514% | -0.663% | 10.5% | -9.86% | -7.71%
O=C1CN(Cc2cccc(Br)c2)S(=O)(=O)c2ccccc2N1Cc1ccccc1F | 16.5% | 2.31% | 12.4% | 7.4% | 10.3%
COc1ccc(NC(=O)N2Cc3[nH]cnc3C[C@H]2c2nc(-c3ccc(C(F)(F)F)cc3)no2)cc1 | -8.31% | -10.4% | -6.45% | -21.9% | -2.32%
